The other results are listed elsewhere or left out.
Assays:
Assay in all cases: glycan array binding signal (z-score within array); higher = stronger binding
Conditions in all cases: glycan notation: IUPAC condensed, linker removed
[1] = molecular target: Neu5Ac(a2-3)Gal(b1-3)[Fuc(a1-4)]GlcNAc
Outline: (§1)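 Columns mapping to the same glycan were averaged after glycan names were converted to IUPAC-condensed notation. The data come from 3228 arrays in the Consortium for Functional Glycomics database, limited to those with an available protein sequence. Binding is reported as a within-array Z-score averaged across arrays of one protein sequence and across linkers.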

[2] = molecular target: Neu5Ac(a2-3)Gal(b1-3)[Fuc(a1-4)]GlcNAc(b1-3)Gal(b1-3)[Fuc(a1-4)]GlcNAc
Outline: as §1

[3] = molecular target: Neu5Ac(a2-3)Gal(b1-3)[Fuc(a1-4)]GlcNAc(b1-3)Gal(b1-4)[Fuc(a1-3)]GlcNAc
Outline: as §1

[4] = molecular target: Neu5Ac(a2-3)Gal(b1-3)[GlcNAc(b1-6)]GalNAc
Outline: as §1

[5] = molecular target: Neu5Ac(a2-3)Gal(b1-3)[Neu5Ac(a2-6)]GalNAc
Outline: as §1

[6] = molecular target: Neu5Ac(a2-3)Gal(b1-3)[Neu5Ac(a2-6)]GlcNAc(b1-3)[Fuc(a1-3)[Gal(b1-4)]GlcNAc(b1-6)]Gal(b1-4)Glc
Outline: as §1

[7] = molecular target: Neu5Ac(a2-3)Gal(b1-3)]Neu5Ac(a2-3)Gal(b1-4)]GlcNAc
Outline: as §1

Neu5Ac(a2-3)Gal(b1-4)Glc = molecular target: Neu5Ac(a2-3)Gal(b1-4)Glc
Outline: as §1

[8] = molecular target: Neu5Ac(a2-3)Gal(b1-4)GlcNAc
Outline: as §1

[9] = molecular target: Neu5Ac(a2-3)Gal(b1-4)GlcNAc(b1-2)Man
Outline: as §1

[10] = molecular target: Neu5Ac(a2-3)Gal(b1-4)GlcNAc(b1-2)Man(a1-3)[GlcNAc(b1-4)][Neu5Ac(a2-3)Gal(b1-4)GlcNAc(b1-2)Man(a1-6)]Man(b1-4)GlcNAc(b1-4)GlcNAc
Outline: as §1

[11] = molecular target: Neu5Ac(a2-3)Gal(b1-4)GlcNAc(b1-2)Man(a1-3)[Neu5Ac(a2-3)Gal(b1-4)GlcNAc(b1-2)Man(a1-6)]Man(b1-4)GlcNAc(b1-4)GlcNAc
Outline: as §1

[12] = molecular target: Neu5Ac(a2-3)Gal(b1-4)GlcNAc(b1-2)Man(a1-3)[Neu5Ac(a2-3)Gal(b1-4)GlcNAc(b1-2)Man(a1-6)]Man(b1-4)GlcNAc(b1-4)[Fuc(a1-6)]GlcNAc
Outline: as §1

[13] = molecular target: Neu5Ac(a2-3)Gal(b1-4)GlcNAc(b1-2)Man(a1-3)[Neu5Ac(a2-6)Gal(b1-4)GlcNAc(b1-2)Man(a1-6)]Man(b1-4)GlcNAc(b1-4)GlcNAc
Outline: as §1

[14] = molecular target: Neu5Ac(a2-3)Gal(b1-4)GlcNAc(b1-2)[Neu5Ac(a2-3)Gal(b1-4)GlcNAc(b1-4)]Man(a1-3)[GlcNAc(b1-4)][Neu5Ac(a2-3)Gal(b1-4)GlcNAc(b1-2)[Neu5Ac(a2-3)Gal(b1-4)GlcNAc(b1-6)]Man(a1-6)]Man(b1-4)GlcNAc(b1-4)GlcNAc
Outline: as §1

[15] = molecular target: Neu5Ac(a2-3)Gal(b1-4)GlcNAc(b1-2)[Neu5Ac(a2-3)Gal(b1-4)GlcNAc(b1-4)]Man(a1-3)[GlcNAc(b1-4)][Neu5Ac(a2-3)Gal(b1-4)GlcNAc(b1-4)Man(a1-6)]Man(b1-4)GlcNAc(b1-4)GlcNAc
Outline: as §1

[16] = molecular target: Neu5Ac(a2-3)Gal(b1-4)GlcNAc(b1-2)[Neu5Ac(a2-3)Gal(b1-4)GlcNAc(b1-6)]Man(a1-6)[Neu5Ac(a2-3)Gal(b1-4)GlcNAc(b1-2)Man(a1-3)]Man(b1-4)GlcNAc(b1-4)GlcNAc
Outline: as §1

[17] = molecular target: Neu5Ac(a2-3)Gal(b1-4)GlcNAc(b1-2)[Neu5Ac(a2-3)Gal(b1-4)GlcNAc(b1-6)]Man(a1-6)[Neu5Ac(a2-3)Gal(b1-4)GlcNAc(b1-2)Man(a1-3)][GlcNAc(b1-4)]Man(b1-4)GlcNAc(b1-4)GlcNAc
Outline: as §1

[18] = molecular target: Neu5Ac(a2-3)Gal(b1-4)GlcNAc(b1-3)Gal
Outline: as §1

[19] = molecular target: Neu5Ac(a2-3)Gal(b1-4)GlcNAc(b1-3)Gal(b1-3)GlcNAc
Outline: as §1

[20] = molecular target: Neu5Ac(a2-3)Gal(b1-4)GlcNAc(b1-3)Gal(b1-4)GlcNAc
Outline: as §1

[21] = molecular target: Neu5Ac(a2-3)Gal(b1-4)GlcNAc(b1-3)Gal(b1-4)GlcNAc(b1-2)Man(a1-3)[Neu5Ac(a2-3)Gal(b1-4)GlcNAc(b1-3)Gal(b1-4)GlcNAc(b1-2)Man(a1-6)]Man(b1-4)GlcNAc(b1-4)GlcNAc
Outline: as §1

[22] = molecular target: Neu5Ac(a2-3)Gal(b1-4)GlcNAc(b1-3)Gal(b1-4)GlcNAc(b1-3)Gal(b1-4)GlcNAc
Outline: as §1

[23] = molecular target: Neu5Ac(a2-3)Gal(b1-4)GlcNAc(b1-3)Gal(b1-4)GlcNAc(b1-3)Gal(b1-4)GlcNAc(b1-2)Man(a1-3)[Neu5Ac(a2-3)Gal(b1-4)GlcNAc(b1-3)Gal(b1-4)GlcNAc(b1-3)Gal(b1-4)GlcNAc(b1-2)Man(a1-6)]GalNAc
Outline: as §1

[24] = molecular target: Neu5Ac(a2-3)Gal(b1-4)GlcNAc(b1-3)Gal(b1-4)GlcNAc(b1-3)GalNAc
Outline: as §1

[25] = molecular target: Neu5Ac(a2-3)Gal(b1-4)GlcNAc(b1-3)Gal(b1-4)GlcNAc(b1-3)[Neu5Ac(a2-3)Gal(b1-4)GlcNAc(b1-3)Gal(b1-4)GlcNAc(b1-6)]GalNAc
Outline: as §1

[26] = molecular target: Neu5Ac(a2-3)Gal(b1-4)GlcNAc(b1-3)Gal(b1-4)GlcNAc(b1-6)[Gal(b1-3)]GalNAc
Outline: as §1

[27] = molecular target: Neu5Ac(a2-3)Gal(b1-4)GlcNAc(b1-3)Gal(b1-4)[Fuc(a1-3)]GlcNAc
Outline: as §1

[28] = molecular target: Neu5Ac(a2-3)Gal(b1-4)GlcNAc(b1-3)GalNAc
Outline: as §1

[29] = molecular target: Neu5Ac(a2-3)Gal(b1-4)GlcNAc(b1-3)[Neu5Ac(a2-3)Gal(b1-4)GlcNAc(b1-6)]GalNAc
Outline: as §1

B1: PX9896A-bth-573-26-573 (Bacteroides thetaiotaomicron) (protein)
chain: ETNNLKTKEDMYKYFGTSKSMLTHVYSYMPQGYQLFATSGGIFTEDRYSMRDCASDDGEFGAYADNIQNTNNGNWSPIKTYDDSWTLYRGIRAANSFIAEIAQVDFTRYEHDGQYTNWMKQLKYFPYEARVLRAHYFFELARRYGDIAMPLEVLTEEEANTIGKTPFSEVISFIVSECDDAANNLPDSYVNEPGAEIGRVTKGFAMAVKSKALLYAASKLHNPSMDTELWKKSAKAAIDIINTGLYSLDPQESANNLDSKEVVLMRINGDDSDFEMFNLPLRMTAGTRTSSLIPYSNYPSQNLVDAFETVNGYKVTLENTGWVCEDPAFDPQSPYENRDKRFYRAILANGMSFKDYTIETFKGGADDGIVSQGGSPTGYFLRKYIQEATSFEPGKEAVSKHHWVIYRYAETLLTYAESMVNAFNDVNYTDETYKYSALWAINEVRKNADMPLIPSMGKDEFMERLYNEWRVEFAFEDHRFWDVRRWKIADTTQRELYGVKIEKQADGTFNFYKNLYETRNWRDCMYLYPIPQSELYKNTNLNPQNTGW
**Q.** Which “glycan array binding signal (z-score)” value [1] does the source give for B1 here?
**A.** Its value is -0.34.

**Q.** And the “glycan array binding signal (z-score)” value [2]?
**A.** The value was -0.865.

**Q.** What about the “glycan array binding signal (z-score)” value [3] of the same binder?
**A.** Its value is 0.622.

**Q.** And the “glycan array binding signal (z-score)” value [4]?
**A.** Its value is -0.325.

**Q.** And the “glycan array binding signal (z-score)” value [5]?
**A.** Its value is -0.015.

**Q.** And the “glycan array binding signal (z-score)” value [6]?
**A.** The value was -0.084.

**Q.** What about the “glycan array binding signal (z-score)” value [7] of the same binder?
**A.** Its value is 0.207.

**Q.** And the “glycan array binding signal (z-score)” value (Neu5Ac(a2-3)Gal(b1-4)Glc)?
**A.** The value was 0.029.

**Q.** And the “glycan array binding signal (z-score)” value [8]?
**A.** Its value is -0.87.

**Q.** What about the “glycan array binding signal (z-score)” value [9] of the same binder?
**A.** Its value is -0.053.

**Q.** What about the “glycan array binding signal (z-score)” value [10] of the same binder?
**A.** The value was -0.598.

**Q.** And the “glycan array binding signal (z-score)” value [11]?
**A.** Its value is -0.076.

**Q.** And the “glycan array binding signal (z-score)” value [12]?
**A.** Its value is -0.024.

**Q.** What about the “glycan array binding signal (z-score)” value [13] of the same binder?
**A.** The value was 0.15.

**Q.** And the “glycan array binding signal (z-score)” value [14]?
**A.** Its value is -0.635.

**Q.** What about the “glycan array binding signal (z-score)” value [15] of the same binder?
**A.** Its value is 0.488.

**Q.** What about the “glycan array binding signal (z-score)” value [16] of the same binder?
**A.** The value was 1.51.

**Q.** What about the “glycan array binding signal (z-score)” value [17] of the same binder?
**A.** The value was -0.624.

**Q.** What about the “glycan array binding signal (z-score)” value [18] of the same binder?
**A.** The value was -0.909.

**Q.** And the “glycan array binding signal (z-score)” value [19]?
**A.** Its value is -0.723.

**Q.** And the “glycan array binding signal (z-score)” value [20]?
**A.** Its value is -0.375.

**Q.** And the “glycan array binding signal (z-score)” value [21]?
**A.** The value was -0.638.

**Q.** What about the “glycan array binding signal (z-score)” value [22] of the same binder?
**A.** The value was 0.33.

**Q.** What about the “glycan array binding signal (z-score)” value [23] of the same binder?
**A.** Its value is 1.93.

**Q.** And the “glycan array binding signal (z-score)” value [24]?
**A.** Its value is -0.392.

**Q.** What about the “glycan array binding signal (z-score)” value [25] of the same binder?
**A.** The value was -0.459.

**Q.** What about the “glycan array binding signal (z-score)” value [26] of the same binder?
**A.** The value was -0.146.

**Q.** And the “glycan array binding signal (z-score)” value [27]?
**A.** The value was -0.535.

**Q.** And the “glycan array binding signal (z-score)” value [28]?
**A.** The value was -0.784.

**Q.** And the “glycan array binding signal (z-score)” value [29]?
**A.** The value was -0.456.
